Further values from the same series stand in other lists.
Assays:
Experiment in all cases: concentration in plasma after dosing
Rat [1] = details: 6 h; dosed: Perfluorooctane Sulfonate; 20 mg/kg; oral; Female; F344
Rat [2] = details: 864 h; dosed: Perfluorooctane Sulfonate; 20 mg/kg; oral; Female; F344
Rat [3] = details: dosed: Perfluorooctane Sulfonate, 2 mg/kg, oral, Female, Harlan Sprague Dawley
Rat [4] = details: dosed: Perfluorooctane Sulfonate, 2 mg/kg, oral, Female, Harlan Sprague Dawley; remark: listed apart in the source
Rat [5] = details: dosed: Perfluorooctane Sulfonate, 20 mg/kg, oral, Female, F344
Rat [6] = details: dosed: Perfluorooctane Sulfonate, 20 mg/kg, oral, Female, F344; remark: listed apart in the source
Rat [7] = details: 3360 h; dosed: Perfluorooctane Sulfonate; 2 mg/kg; oral; Female; Harlan Sprague Dawley
Rat [8] = details: 3360 h; dosed: Perfluorooctane Sulfonate; 20 mg/kg; oral; Male; Harlan Sprague Dawley
Rat [9] = details: dosed: Perfluorodecanoic acid, 20 mg/kg, oral, Female, Harlan Sprague Dawley
Rat [10] = details: dosed: Perfluorodecanoic acid, 10 mg/kg, oral, Male, Harlan Sprague Dawley
Rat [11] = details: dosed: Perfluorodecanoic acid, 20 mg/kg, oral, Male, Harlan Sprague Dawley
Rat [12] = details: dosed: Perfluorodecanoic acid, 10 mg/kg, oral, Male, Harlan Sprague Dawley; remark: listed apart in the source
Rat [13] = details: dosed: Perfluorodecanoic acid, 20 mg/kg, oral, Male, Harlan Sprague Dawley; remark: listed apart in the source
Rat [14] = details: 1 h; dosed: Perfluorodecanoic acid; 10 mg/kg; oral; Male; Harlan Sprague Dawley
Rat [15] = details: dosed: Perfluorodecanoic acid, 20 mg/kg, oral, Male, Harlan Sprague Dawley; remark: listed apart in the source
Rat [16] = details: 9 h; dosed: Fluorotelomer alcohol 8+2; 80 mg/kg; oral; Female; Harlan Sprague Dawley
Rat [17] = details: 1 h; dosed: Perfluorooctanoic acid; 80 mg/kg; oral; Female; Harlan Sprague Dawley
Rat [18] = details: dosed: Perfluorooctanoic acid, 320 mg/kg, oral, Female, Harlan Sprague Dawley
Rat [19] = details: dosed: Fluorotelomer alcohol 8+2, 40 mg/kg, oral, Female, Harlan Sprague Dawley
Rat [20] = details: dosed: Fluorotelomer alcohol 8+2, 160 mg/kg, oral, Female, Harlan Sprague Dawley
Rat [21] = details: 3 h; dosed: Perfluorooctanoic acid; 80 mg/kg; oral; Female; Harlan Sprague Dawley
Rat [22] = details: 0.5 h; dosed: Fluorotelomer alcohol 8+2; 80 mg/kg; oral; Female; Harlan Sprague Dawley
Rat [23] = details: dosed: Perfluorooctanoic acid, 6 mg/kg, iv, Male, F344
Rat [24] = details: 48 h; dosed: Fluorotelomer alcohol 8+2; 160 mg/kg; oral; Female; Harlan Sprague Dawley
Rat [25] = details: 6 h; dosed: Fluorotelomer alcohol 8+2; 24 mg/kg; oral; Male; Harlan Sprague Dawley
Rat [26] = details: 24 h; dosed: Perfluorooctanoic acid; 12 mg/kg; oral; Male; Harlan Sprague Dawley
Rat [27] = details: 6 h; dosed: Fluorotelomer alcohol 8+2; 80 mg/kg; oral; Female; Harlan Sprague Dawley
Rat [28] = details: 3 h; dosed: Perfluorooctanoic acid; 40 mg/kg; iv; Male; F344
Rat [29] = details: 192 h; dosed: Fluorotelomer alcohol 8+2; 24 mg/kg; oral; Male; Harlan Sprague Dawley
Rat [30] = details: 6 h; dosed: Perfluorooctanoic acid; 80 mg/kg; oral; Female; Harlan Sprague Dawley
Rat [31] = details: dosed: Perfluorooctanoic acid, 6 mg/kg, iv, Male, F344; remark: listed apart in the source
Rat [32] = details: dosed: Perfluorooctanoic acid, 6 mg/kg, iv, Male, F344; remark: listed apart in the source
Rat [33] = details: dosed: Fluorotelomer alcohol 8+2, 80 mg/kg, oral, Female, Harlan Sprague Dawley

O=S(=O)([O-])C(F)(F)C(F)(F)C(F)(F)C(F)(F)C(F)(F)C(F)(F)C(F)(F)C(F)(F)F [Perfluorooctane Sulfonate]
Details	concentration in plasma [ng/mL]
Rat [1]	90000
Rat [2]	33800
Rat [7]	728
Rat [8]	3020

Details	concentration in plasma [ng/mL]
Rat [3], 1 h	2220
Rat [3], 192 h	4740
Rat [3], 2520 h	1180
Rat [4], 12 h	6120
Rat [4], 1200 h	3080
Rat [5], 5 min	446
Rat [5], 192 h	68600
Rat [5], 1200 h	29800
Rat [6], 12 h	109000
Rat [6], 528 h	68800

O=C(O)C(F)(F)C(F)(F)C(F)(F)C(F)(F)C(F)(F)C(F)(F)C(F)(F)C(F)(F)C(F)(F)F [Perfluorodecanoic acid]
Details	concentration in plasma [ng/mL]
Rat [9], 1 h	68500
Rat [9], 192 h	127000
Rat [9], 2520 h	12300
Rat [10], 6 h	44500
Rat [10], 1200 h	7650
Rat [10], 3360 h	1160
Rat [11], 2 h	48900
Rat [11], 528 h	24000
Rat [11], 3360 h	3560
Rat [12], 0.5 h	5280
Rat [12], 192 h	25700
Rat [12], 1848 h	6300
Rat [13], 6 h	88400
Rat [13], 864 h	18700
Rat [15], 12 h	75600
Rat [15], 1200 h	13600

Details	concentration in plasma [ng/mL]
Rat [14]	20900

O=C(O)C(F)(F)C(F)(F)C(F)(F)C(F)(F)C(F)(F)C(F)(F)C(F)(F)F [Perfluorooctanoic acid]
Details	concentration in plasma [ng/mL]
Rat [16]	1640
Rat [17]	220000
Rat [21]	230000
Rat [22]	422
Rat [24]	74.8
Rat [25]	905
Rat [26]	81100
Rat [27]	1580
Rat [28]	76400
Rat [29]	744
Rat [30]	210000

Details	concentration in plasma [ng/mL]
Rat [18], 1 h	445000
Rat [18], 12 h	198000
Rat [19], 0.75 h	448
Rat [19], 12 h	995
Rat [20], 1 h	2210
Rat [20], 24 h	3040
Rat [23], 0.25 h	50700
Rat [23], 6 h	45000
Rat [23], 864 h	3060
Rat [31], 1 h	45900
Rat [31], 192 h	18400
Rat [32], 0.5 h	47800
Rat [32], 12 h	47200
Rat [32], 1200 h	1240
Rat [33], 0.75 h	741
Rat [33], 48 h	66.3

— EPA's CvTdb concentration-time database
